According to PubChem BioAssay (NCATS):
This list was built around the results that the source calls inconclusive (neither active nor inactive); the mix of calls is not that of the screen. Potencies of inconclusive entries are left out as doubtful fits. Calls of active or inactive are those of the source. The call rests on the fitted dose curve; in most records, active means well fitted cell-killing curve with a large enough effect; inconclusive means small, poorly fitted or top-dose-only effect; inactive means no such curve, though single readings can be large or run the other way.

Test: qHTS of pediatric cancer cell lines to identify multiple opportunities for drug repurposing: Primary screen for SK-N-SH cells (AID 1347098); further: nearly all actives have a fitted effect of over 65% in size
Details: SK-N-SH viability, CellTiter-Glo luminescence, 48 h; series mostly up to 57 µM
Source text: Drug repurposing or repositioning has been offered as a strategy for drug development in oncology programs. This approach has special potential for childhood cancers and other rare or orphan diseases, where the expected return on new drug development has been a disincentive to pharmaceuticals.
In this project we exploit the poly-pharmacology of drugs to discover new indications via phenotypic screening of a panel of 19 well-characterized cell lines derived from solid tumors seen in children and adolescents. The goal is to identify approved drugs with previously unrecognized anticancer properties that has the potential to reveal new mechanisms and biological processes involved in carcinogenesis or drug resistance. We employed a titration-based paradigm (quantitative high-throughput screening or qHTS), where all compounds were tested at multiple concentrations for their effect on cell viability. Concentration-response curves (CRCs) were derived directly from the primary screen, and both potency and efficacy values were used to identify compounds with robust bioactivity profiles. We screened the NIH Chemical Genomics Center (NCGC) Pharmaceutical Collection (NPC) and Mechanism Interrogation Plate (MIPE) small molecule collections of approved and investigational compounds against these cell lines; and measured metabolically active cells after 48 hours of compound treatment as a proxy for cell viability.
Assay Submitter: Nathalia J. Martinez, National Center for Advancing Translational Sciences, National Institutes of Health, Rockville, MD, USA; email: natalia.martinez@nih.gov
[1] Shen, M et al. Quantitative high-throughput phenotypic screening of pediatric cancer cell lines identifies multiple opportunities for drug repurposing. Oncotarget 2017 Dec 19;9(4):4758-4772. PMID 29435139.
The cells were obtained from University of North Carolina (UNC), Pediatric Preclinical Testing Program (PPT), and Coriell Institute (CI).
qHTS cell viability assay:
Cells were assayed in growth media at a density of 500-1,000 cells/well. Five microliters of cells were dispensed into 1,536-well, white, solid-bottom, TC-treated plates (Greiner Bio One) using a multidrop dispenser and incubated at 37 degrees C, 5% CO2, under a humidified atmosphere for 5 hours. Twenty-three nanoliters of compounds and controls (neutral control DMSO or positive control bortezomib at final concentration of 2.3 µM) were subsequently transferred by Kalypsys pintool. For primary screens, the MIPE collection was tested at 11-point dilutions (final concentrations range from 0.78 nM to 46 µM) and the NPC collection at 8-point dilutions (final concentrations range from 0.59 nM to 46 µM). Compounds tested in follow-up screens were assayed at 11-point dilutions. Cells were incubated for 48 hours, followed by addition of 3 µL of CellTiter-Glo (Promega). After a 15 min incubation at room temperature, samples were analyzed for luminescence intensity using a ViewLux High-throughput CCD imager equipped with clear filters.
Potency means the concentration at half of the fitted maximal effect; tags describe the fitted curve by direction and shape.

**Q.** With `COC(=O)[C@H]1[C@H]2C[C@@H]3c4[nH]c5cc(OC)ccc5c4CCN3C[C@H]2C[C@@H](OC(=O)c2cc(OC)c(OC)c(OC)c2)[C@@H]1OC` as the compound, how does the Potency read?
**A.** Its Potency is inconclusive [cytotoxic, partial curve, poor fit].

**Q.** Which Potency does the source give for `C=C1C(=O)O[C@H]2[C@@H]1CCC(C)=CCC[C@@]1(C)O[C@@H]21` here?
**A.** The Potency was active: 24.1 µM.

**Q.** With `Cc1cnc(Nc2ccc(CN3CCOCC3)cc2)nc1Nc1cccc(S(=O)(=O)NC(C)(C)C)c1` as the compound, how does the Potency read?
**A.** The Potency was active: 3.04 µM.

**Q.** Which Potency does the source give for `C[C@](Cc1c[nH]c2ccccc12)(NC(=O)OC1C2CC3CC(C2)CC1C3)C(=O)NC[C@H](NC(=O)CCC(=O)O)c1ccccc1` (stereo not given in full) here?
**A.** Its Potency is inconclusive [cytotoxic, single point].

**Q.** Which Potency does the source give for `N#Cc1c(C2CCNCC2)cc(-c2c(O)cccc2OCC2CC2)nc1N` here?
**A.** The Potency was active: 21.5 µM.

**Q.** With `O=C(Nc1ccc(Oc2ccc(Cl)cc2)c(Cl)c1)c1cc(I)cc(I)c1O` as the compound, how does the Potency read?
**A.** The Potency was inconclusive [cytotoxic, single point].

**Q.** With `C=C[C@@]1(C)CC(=O)[C@]2(O)[C@@]3(C)[C@@H](O)CCC(C)(C)[C@@H]3[C@H](O)[C@H](OC(C)=O)[C@@]2(C)O1` as the compound, how does the Potency read?
**A.** The Potency was “inactive”.

**Q.** With `COc1ccccc1OC(=O)Oc1ccccc1OC` as the compound, how does the Potency read?
**A.** The Potency was “inactive”.

**Q.** With `CC[N+](CC)(CC)CCOc1ccc(/C=C/c2ccccc2)cc1` as the compound, how does the Potency read?
**A.** The Potency was inconclusive [cytotoxic, partial curve, poor fit].

**Q.** Which Potency does the source give for `Cc1c(NC(=O)OC[C@@H]2COCCN2)cn2ncnc(Nc3ccc4c(cnn4Cc4cccc(F)c4)c3)c12` here?
**A.** Its Potency is inconclusive [cytotoxic, partial curve].

**Q.** Which Potency does the source give for `CC1(C)CCC(c2ccc(Cl)cc2)=C(CN2CCN(c3ccc(C(=O)NS(=O)(=O)c4ccc(N[C@H](CCN5CCOCC5)CSc5ccccc5)c(S(=O)(=O)C(F)(F)F)c4)cc3)CC2)C1` here?
**A.** The Potency was active: 24.1 µM.

**Q.** Which Potency does the source give for `CC(C)(C)c1nc2c3cc[nH]c(=O)c3c3cc(F)ccc3c2[nH]1` here?
**A.** Its Potency is active: 9.61 µM.

**Q.** Which Potency does the source give for `C[C@@H](CN(C)C)CN1c2ccccc2Sc2ccccc21` here?
**A.** The Potency was inconclusive [cytotoxic, single point].

**Q.** For `Cc1cc2nc3ccc(=[N+](C)C)cc-3sc2cc1N`, which Potency is on record?
**A.** Its Potency is active: 10.9 µM.

**Q.** For `CCCCOc1ccc(CC(=O)NO)cc1`, which Potency is on record?
**A.** Its Potency is inconclusive [cytotoxic, partial curve].

**Q.** Which Potency does the source give for `C[C@H]1[C@@H](OC(=O)CCC(=O)O)O[C@@H]2O[C@@]3(C)CC[C@@H]4[C@H](C)CC[C@@H]1[C@@]24OO3` here?
**A.** The Potency was active: 13.6 µM.

**Q.** With `CNCC[C@@H](Oc1ccccc1C)c1ccccc1` as the compound, how does the Potency read?
**A.** The Potency was “inactive”.

**Q.** With `CC(C)(c1ccc(O)cc1)c1ccc(O)cc1` as the compound, how does the Potency read?
**A.** Its Potency is inconclusive [cytotoxic, single point].

**Q.** For `NC(N)=NS(=O)(=O)c1ccc(N)cc1`, which Potency is on record?
**A.** The Potency was “inactive”.

**Q.** With `Cc1cccc(N(C)C(=S)Oc2ccc3c(c2)CCC3)c1` as the compound, how does the Potency read?
**A.** Its Potency is inconclusive [cytotoxic, single point].

**Q.** Which Potency does the source give for `CC(C)N=C(N)/N=C(\N)Nc1ccc(Cl)cc1` here?
**A.** The Potency was inconclusive [cytotoxic, partial curve, poor fit].

**Q.** Which Potency does the source give for `CCN(CC)CCOc1ccc(C(O)(Cc2ccc(Cl)cc2)c2ccc(C)cc2)cc1` (stereo not given) here?
**A.** The Potency was inconclusive [cytotoxic, single point].

**Q.** Which Potency does the source give for `CCOC(=O)[C@H](CCc1ccccc1)N[C@@H](C)C(=O)N1Cc2ccccc2C[C@H]1C(=O)O` here?
**A.** Its Potency is inconclusive [cytotoxic, single point].

**Q.** For `CCC[C@H](NC(=O)C(C#N)=Cc1cccc(Br)n1)c1ccccc1`, which Potency is on record?
**A.** The Potency was active: 24.1 µM.

**Q.** With `COc1c(OCCCN2CCOCC2)ccc2c3n(c(=NC(=O)c4cnc(N)nc4)nc12)CCN3` as the compound, how does the Potency read?
**A.** Its Potency is inconclusive [cytotoxic, full curve].

**Q.** For `Cn1c2ccccc2c2c3c(c4c5ccccc5n(CCC#N)c4c21)CNC3=O`, which Potency is on record?
**A.** Its Potency is active: 5.41 µM.

**Q.** With `CCN(CC)CCOc1ccc2c(c1)C(=O)c1cc(OCCN(CC)CC)ccc1-2` as the compound, how does the Potency read?
**A.** The Potency was active: 34.4 µM.

**Q.** With `CN1CCC(N(Cc2cccs2)c2ccccc2)CC1` as the compound, how does the Potency read?
**A.** The Potency was inconclusive [cytotoxic, partial curve, poor fit].

**Q.** For `CN(C)C(=O)CNC(=O)Cc1ccccc1`, which Potency is on record?
**A.** The Potency was “inactive”.

**Q.** For `CCCCOCCOCCOCc1cc2c(cc1CCC)OCO2`, which Potency is on record?
**A.** The Potency was “inactive”.

**Q.** For `Cc1c(Cl)cccc1Nc1ccccc1C(=O)O`, which Potency is on record?
**A.** Its Potency is “inactive”.

**Q.** Which Potency does the source give for `CC1CC(=O)NN=C1c1ccc(NCC(C)(C)NCC(O)COc2cc(Cl)ccc2C#N)cc1` (stereo not given) here?
**A.** The Potency was “inactive”.

**Q.** For `CCCCCC(=O)O[C@]1(C(C)=O)CC[C@H]2[C@@H]3CCC4=CC(=O)CC[C@]4(C)[C@H]3CC[C@@]21C`, which Potency is on record?
**A.** Its Potency is active: 24.4 µM.

**Q.** Which Potency does the source give for `CC(N=C(NC#N)Nc1ccncc1)C(C)(C)C` (stereo not given) here?
**A.** The Potency was inconclusive [cytotoxic, partial curve, poor fit].

**Q.** Which Potency does the source give for `CC[C@@H]1C(=O)N(C)c2cnc(Nc3ccc(C(=O)NC4CCC(N5CCN(CC6CC6)CC5)CC4)cc3OC)nc2N1C(C)C` (stereo not given in full) here?
**A.** The Potency was active: 0.607 µM.

**Q.** Which Potency does the source give for `Cn1c(Nc2ccc(C(F)(F)F)cc2)nc2cc(Oc3ccnc(-c4ncc(C(F)(F)F)[nH]4)c3)ccc21` here?
**A.** Its Potency is active: 7.64 µM.

**Q.** With `CC(=O)ON=C1C(c2c(O)[nH]c3cc(Br)ccc23)=Nc2ccccc21` as the compound, how does the Potency read?
**A.** The Potency was inconclusive [cytotoxic, full curve].

**Q.** With `COc1cccc2cc(-c3nc(C4CCC(C(=O)O)CC4)n4ncnc(N)c34)[nH]c12` (stereo not given) as the compound, how does the Potency read?
**A.** Its Potency is inconclusive [cytotoxic, full curve].

**Q.** For `CN(C)CCCN1c2ccccc2Sc2ccccc21`, which Potency is on record?
**A.** Its Potency is inconclusive [cytotoxic, single point].

**Q.** For `CCN(CC)CCCCNc1ncc2c(n1)N(C)C(=O)N(c1c(Cl)c(OC)cc(OC)c1Cl)C2`, which Potency is on record?
**A.** Its Potency is active: 6.81 µM.
